Experimental data from the supplement of paper PMC10126150.
Sequences with one replicate were seen in a single cluster, so their values are uncertain.

Tested on: ATP
Assay: switch fluorescence ratio, 500 uM ATP over buffer (Cy3 cluster intensity, sum of 5 cycles each) (fold (ratio)); higher = stronger signal-on switching upon ATP binding; sequences stand for … in TCGTCGGCAGCGTCAGATGTGTATAAGAGACAGTTTTTTTTTTTTTTTTTTTTTTTTT…TC
Conditions: aptamer strand: ATP DNA aptamer (quencher-CACCTGGGGGAGTATTGCGGAGGAAGG + anchor), 100 nM annealed; ATP concentration: 500 uM; one replicate
Outline: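 Cy3-labelled switching-strand clusters on a modified Illumina MiSeq flow-cell were annealed to 100 nM quencher-labelled ATP aptamer, imaged in selection buffer, then imaged after 15 min with 500 uM ATP at 22 °C. Five buffer/ATP cycles ran, with NaOH stripping and re-annealing between them. The fluorescence ratio is summed target-cycle over summed buffer-cycle Cy3 intensity per cluster, averaged per switch-domain sequence. Clusters outside 100-1000 RFU were excluded.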
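Also: ATP exposure 15 min at 22 °C before imaging.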

Row | Sequence | switch fluorescence ratio
1 | CCGCTGTATC | 3.48
2 | TTTTATGCAG | 0.969
3 | GACGATTAAG | 1.01
4 | AAACGCCG | 1.05
5 | GGCCCCTTTG | 1.04
6 | TTAGTTTAGT | 0.971
7 | GTTCCCG | 0.982
8 | CCGATTCGGC | 1.01
9 | CCTGCAGCTA | 5
10 | ATTGTATAGT | 1.05
11 | TAGCGGATTC | 1.06
12 | GCAAGTGCGT | 1.02
13 | GGAATAAGTG | 1
14 | TGGTGAATTC | 1.02
15 | ATCACTGGAA | 1.02
16 | GAGAGTCATG | 1.03
17 | GGTGCCTTTC | 0.938
18 | GAGTCTGTTG | 0.998
19 | ATAATAGAGA | 0.969
20 | ACCGACCGTC | 1.45
21 | TGGGCGGTAG | 1
22 | TATTTAGTAC | 0.956
23 | CGGCGGGCTC | 1.09
24 | AGCTTTTGCC | 1
25 | ATCCTGGTCC | 1.02
26 | ACGCGTGTTC | 1.07

Row | Sequence | switch fluorescence ratio
27 | TTGGTGCCAT | 1.07
28 | GGTCCAATGG | 0.993
29 | GGACCGTCA | 0.992
30 | AGAAAGCCCT | 1.03
31 | TTTTTCTTCC | 1.58
32 | TCTCAGCAAC | 3.39
33 | CTCCATACAC | 1.99
34 | TCCTATTGG | 1.03
35 | GCGAGAGATG | 0.99
36 | ACACCTGGGT | 1.04
37 | GGGTAAAGAC | 1.06
38 | GATGTTGGG | 0.947
39 | ATTTTGTCAA | 1.03
40 | GAAACTTATT | 1.04
41 | GAACGGTCAC | 1.2
42 | GTATGTATCC | 0.996
43 | GAGGGCCACG | 1.05
44 | GGGAACTCAT | 0.988
45 | GGTTCTTGTA | 0.99
46 | TGGAAGACGA | 0.96
47 | GATGGGCAAA | 0.973
48 | GTCTGATTCC | 1.01
49 | CATAAGAGGA | 1
50 | TTATCCGAGC | 1.11
51 | TGGGCGTACC | 1.09
52 | CGCACTGGAC | 2.17

Row | Sequence | switch fluorescence ratio
53 | ATGCCGCATT | 1
54 | TAAGGTAGTG | 1.03
55 | GGCTCTTCGC | 1.03
56 | TTAAAAGGGC | 1.02
57 | AGGGCCACTA | 1.03
58 | GCTTACACAC | 1.32
59 | ACCAGGAACC | 1.17
60 | ATCGAATGGG | 0.975
61 | GTGGAAATGC | 1.13
62 | TTAGTGGCAT | 0.972
63 | GCCGCAGCTG | 1.15
64 | TTCACAGAGC | 1.02
65 | GATGGCAACC | 1.14
66 | CCGAAATATA | 2.01
67 | ACCCTGAGAC | 1.06
68 | TCAAGCCCAA | 0.984
69 | CATCGAGTCG | 1.04
70 | AGGAAATTC | 1.3
71 | GTAGAAAGAC | 1.09
72 | AAGTAGTGTT | 1.02
73 | TATGTGTA | 1.01
74 | CACGGCTGCG | 0.993
75 | GCAACGAATG | 1.03
76 | GTTGCCGGTA | 1.03
77 | GTGCCTGACT | 1.02
78 | ACTAATGGCA | 1.01

Row | Sequence | switch fluorescence ratio
79 | TACTAACAC | 1.26
80 | AGATTAACTT | 1.02
81 | TGCGGGTGAG | 1.05
82 | AACCTACGT | 1.59
83 | GACGGTATT | 1.09
84 | ATACGGTATC | 1.25
85 | TGCACAGACC | 1.04
86 | AGCTTAGCAT | 0.993
87 | TATTAAATAA | 1.58
88 | GCGGTGGCTT | 0.964
89 | AATGGATTAG | 0.986
90 | GGCATTACAG | 0.989
91 | CGTATTATT | 0.985
92 | GTACGCCTGG | 1
93 | TTGGACTCT | 0.977
94 | TGTTGCCTAA | 0.975
95 | GAGGCGCACA | 1.02
96 | AGATTGATTT | 1.01
97 | GTTGACCGGA | 1.08
98 | CCGGAAAGCT | 1.53
99 | AATGCTCCGT | 1.13
100 | TTTTCGCCCT | 1.01
101 | GAGGACCTC | 1.1
